Data on four molecules can be found in article PMC2151612 (The Journal of General Physiology, 2007).

The target in this assay is GST-syntaxin 1A ([…]). The experiment in a line: ELISA. A general note: An ELISA detects its analyte on a solid surface through an enzyme-linked reagent.

B1: His6-tagged full-length SNAP-25b S187A (natural protein)
chain: not shown
Turning to B1, the binding result is reported as “binds”.

B2: His6-tagged full-length SNAP-25b T138E (natural protein)
chain: not shown
Consider B2, for which the binding result is “binds”.

B3: His6-tagged full-length SNAP-25b T138E/S187E double mutant (natural protein)
chain: not shown
With B3, the binding result is given as “binds”.

B4: His6-tagged full-length SNAP-25b S187E (natural protein)
chain: not shown
As for B4, the binding result is listed as “binds”.
